Source: article PMC9144445, “Substrate-Based Design of Cytosolic Nucleotidase IIIB Inhibitors and Structural Insights into Inhibition Mechanism” (Pharmaceuticals, 2022)

Columns and labels:
[1] = biological target: T1, human cN-IIIB (Homo sapiens, UniProt Q969T7); settings: for Inhibition of cN-IIIB activity, first library (in words): m7GMP 100 μM + inhibitor 100 μM, cN-IIIB 80 nM, 45 min; for Inhibition: relative percentage of inhibition of cN-IIIB, first-library hits (Figure 2A)
T1 sequence (Q969T7 1-300): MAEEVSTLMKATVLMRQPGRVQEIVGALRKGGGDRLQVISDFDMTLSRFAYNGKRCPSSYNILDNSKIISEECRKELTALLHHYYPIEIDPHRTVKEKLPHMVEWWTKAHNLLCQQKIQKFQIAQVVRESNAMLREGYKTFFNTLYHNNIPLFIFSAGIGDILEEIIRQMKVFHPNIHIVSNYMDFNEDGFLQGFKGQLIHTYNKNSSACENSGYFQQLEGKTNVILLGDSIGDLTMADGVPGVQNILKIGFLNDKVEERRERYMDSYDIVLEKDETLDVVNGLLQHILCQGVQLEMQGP

[2] = biological target: T1, human cN-IIIB; experiment: Hydrolysis assay: susceptibility to hydrolysis by cN-IIIB (MGP assay); type: biochemical; set-up: expressed as a construct of full-length protein (residues 1–300); His6 (N, cleaved yes); ubiquitin-like Smt protein (SUMO) (N, cleaved yes); made in house; settings: cN-IIIB 80 nM, 45 min; for Susceptibility to hydrolysis (%): MGP assay
[3] = biological target: T1, human cN-IIIB; experiment: IC50 determination for cN-IIIB (MGP assay)
[4] = library I, compound 100 μM, relative to m7GMP set to 100%

| SMILES | Susceptibility to hydrolysis (%) [2, 4] [%] | IC50 [3] [µM] | also measured |
| --- | --- | --- | --- |
| C[n+]1cn([C@@H]2O[C@H](Cn3cc(P(=O)([O-])O)nn3)[C@@H](O)[C@H]2O)c2nc(N)[nH]c(=O)c21 [Compound 4] | 0.0 | 102 ± 7.8 | Inhibition of cN-IIIB activity, first library (in words) [1]: inhibited cN-IIIB to some extent; Inhibition [1]: 65.1%; Susceptibility to hydrolysis (%) ([2]; library II, compound 100 µM): 0.0% |
| C[n+]1cn([C@@H]2O[C@H](Cn3nncc3P(=O)([O-])O)[C@@H](O)[C@H]2O)c2nc(N)[nH]c(=O)c21 [Compound 4a, 7-Methylguanosine-triazol-p (1,5 Isomer)] |  | 35 ± 15 | Susceptibility to hydrolysis (%) ([2]; library II, compound 100 µM): 0.0%; Potency towards cN-IIIB relative to compound 4 ([3]; comparison of IC50 values): approximately three-fold more efficiently |
| C[n+]1cn(Cc2cn(CP(=O)([O-])O)nn2)c2nc(N)[nH]c(=O)c21 [Compound 4b, 7-methylguanosine-9-CH2-Triazol-CH2-p] |  | > 500 | Susceptibility to hydrolysis (%) ([2]; library II, compound 100 µM): 0.0% |
| Nc1nc2c(c(=O)[nH]1)[n+](Cc1ccccc1)cn2[C@@H]1O[C@H](COP(=O)([O-])O)[C@@H](O)[C@H]1O [Compound 5] | 0.0 | 10 ± 1 |  |
| Cc1cccc(C[n+]2cn([C@@H]3O[C@H](COP(=O)([O-])O)[C@@H](O)[C@H]3O)c3nc(N)[nH]c(=O)c32)c1 [Compound 5a] |  | 2.3 ± 0.3 |  |
| Cc1ccc(C[n+]2cn([C@@H]3O[C@H](COP(=O)([O-])O)[C@@H](O)[C@H]3O)c3nc(N)[nH]c(=O)c32)cc1 [Compound 5b] |  | 14.3 ± 1.8 | Susceptibility to hydrolysis (%) ([2]; library II, compound 100 µM): 0.0% |
| Cc1cc(C)cc(C[n+]2cn([C@@H]3O[C@H](COP(=O)([O-])O)[C@@H](O)[C@H]3O)c3nc(N)[nH]c(=O)c32)c1 [Compound 5c] |  | 13.9 ± 2 | Susceptibility to hydrolysis (%) ([2]; library II, compound 100 µM): 0.0% |
| Nc1nc2c(c(=O)[nH]1)[n+](Cc1ccc(F)c(F)c1)cn2C1OC(COP(=O)([O-])O)C(O)C1O (centres unmarked) [Compound 5d] |  | 2.5 ± 0.2 |  |
| Nc1nc2c(c(=O)[nH]1)[n+](Cc1ccc(F)cc1F)cn2[C@@H]1O[C@H](COP(=O)([O-])O)[C@@H](O)[C@H]1O [Compound 5e] |  | 27.6 ± 2.6 | Susceptibility to hydrolysis (%) ([2]; library II, compound 100 µM): 0.0% |
| Nc1nc2c(c(=O)[nH]1)[n+](Cc1cc(F)c(F)c(F)c1)cn2[C@@H]1O[C@H](COP(=O)([O-])O)[C@@H](O)[C@H]1O [Compound 5f] |  | 12.3 ± 2.6 | Susceptibility to hydrolysis (%) ([2]; library II, compound 100 µM): 0.0% |
| Nc1nc2c(c(=O)[nH]1)[n+](Cc1ccc(C(F)(F)F)cc1)cn2[C@@H]1O[C@H](COP(=O)([O-])O)[C@@H](O)[C@H]1O [Compound 5g, 7-(4-Trifluoromethylbenzyl)guanosine 5’-Monophosphate] |  | 7.3 ± 0.9 | Susceptibility to hydrolysis (%) ([2]; library II, compound 100 µM): 0.0% |
| C#CC[n+]1cn([C@@H]2O[C@H](COP(=O)([O-])O)[C@@H](O)[C@H]2O)c2nc(N)[nH]c(=O)c21 [Compound 7] | 0.0 |  | Inhibition of cN-IIIB activity, first library (in words) [1]: most potent inhibitory effect; Inhibition [1]: 62.3%; Susceptibility to hydrolysis by cN-IIIB (in words) ([2]; compound 100 μM): resistant to hydrolysis |
| Nc1nc2c(c(=O)[nH]1)[n+](Cc1ccccc1)cn2[C@@H]1O[C@H](CO[PH](=O)[O-])[C@@H](O)[C@H]1O [Compound 8c, 7-benzylguanosine 5’-H-phosphonate] |  | > 500 | Susceptibility to hydrolysis (%) ([2]; library II, compound 100 µM): 0.0% |
| Nc1nc2c(c(=O)[nH]1)[n+](Cc1ccccc1)cn2[C@@H]1O[C@H](Cn2cc(P(=O)([O-])O)nn2)[C@@H](O)[C@H]1O [Compound 8d, 7-Benzylguanosine-Triazol-p] |  | 89 ± 27 | Susceptibility to hydrolysis (%) ([2]; library II, compound 100 µM): 0.0% |
| Cc1cccc(C[n+]2cn([C@@H]3O[C@H](Cn4cc(P(=O)([O-])O)nn4)[C@@H](O)[C@H]3O)c3nc(N)[nH]c(=O)c32)c1 [Compound 8e, 7-(3-Methylbenzyl)guanosine-Triazol-p] |  | 144 ± 23 | Susceptibility to hydrolysis (%) ([2]; library II, compound 100 µM): 0.0% |
| C#CCNP(=O)(O)OC[C@H]1O[C@@H](n2c[n+](C)c3c(=O)[nH]c(N)nc32)[C@H](O)[C@@H]1O [Compound S4] | 0.0 |  |  |
| C#CCNP(=O)(O)OP(=O)([O-])OC[C@H]1O[C@@H](n2c[n+](C)c3c(=O)[nH]c(N)nc32)[C@H](O)[C@@H]1O [Compound S5] | 0.0 |  |  |
| C[n+]1cn([C@@H]2O[C@H](COP(=O)([O-])NCCN=[N+]=[N-])[C@@H](O)[C@H]2O)c2nc(N)[nH]c(=O)c21 [Compound S6] | 0.0 |  |  |
| C[n+]1cn([C@@H]2O[C@H](COP(=O)([O-])OP(=O)(O)NCCN=[N+]=[N-])[C@@H](O)[C@H]2O)c2nc(N)[nH]c(=O)c21 [Compound S7] | 0.0 |  |  |
| C#CCCP(=O)(O)OP(=O)([O-])OC[C@H]1O[C@@H](n2c[n+](C)c3c(=O)[nH]c(N)nc32)[C@H](O)[C@@H]1O [Compound S8] | 0.0 |  |  |

| SMILES | Susceptibility to hydrolysis (%) [2, 4] [%] | IC50 [3] [µM] | also measured |
| --- | --- | --- | --- |
| C#CCP(=O)(O)OP(=O)([O-])OC[C@H]1O[C@@H](n2c[n+](C)c3c(=O)[nH]c(N)nc32)[C@H](O)[C@@H]1O [Compound S9] | 0.0 |  |  |
| C#CP(=O)(O)OP(=O)([O-])OC[C@H]1O[C@@H](n2c[n+](C)c3c(=O)[nH]c(N)nc32)[C@H](O)[C@@H]1O [Compound S10] | 0.0 |  |  |
| C#CCOP(=O)(O)OP(=O)([O-])OC[C@H]1O[C@@H](n2c[n+](C)c3c(=O)[nH]c(N)nc32)[C@H](O)[C@@H]1O [Compound S11] | 0.0 |  |  |
| C[n+]1cn([C@@H]2O[C@H](COP(N)(=O)[S-])[C@@H](O)[C@H]2O)c2nc(N)[nH]c(=O)c21 (some centres unmarked) [Compound S12] | 0.0 |  |  |
| C[n+]1cn([C@@H]2O[C@H](COP(N)(=O)[S-])[C@@H](O)[C@H]2O)c2nc(N)[nH]c(=O)c21 (some centres unmarked) [Compound S13] | 0.0 |  |  |
| C[n+]1cn([C@@H]2O[C@H](Cn3cc(CP(=O)([O-])O)nn3)[C@@H](O)[C@H]2O)c2nc(N)[nH]c(=O)c21 [Compound S15] | 0.0 |  |  |
| C[n+]1cn([C@@H]2O[C@H](Cn3cc(CCP(=O)([O-])O)nn3)[C@@H](O)[C@H]2O)c2nc(N)[nH]c(=O)c21 [Compound S16] | 0.0 |  |  |
| C[n+]1cn([C@@H]2O[C@H](Cn3cc(COP(=O)([O-])O)nn3)[C@@H](O)[C@H]2O)c2nc(N)[nH]c(=O)c21 [Compound S17] | 122.2 |  |  |
| C#CCn1c(N)nc2c(ncn2[C@@H]2O[C@H](COP(=O)(O)O)[C@@H](O)[C@H]2O)c1=O [Compound S23] | 73.3 |  |  |
| CO[C@@H]1[C@H](O)[C@@H](COP(=O)(O)O)O[C@H]1n1cnc2c(=O)[nH]c(N)nc21 [Compound S25] | 0.0 |  |  |
| CO[C@@H]1[C@H](O)[C@@H](COP(=O)([O-])O)O[C@H]1n1c[n+](C)c2c(=O)[nH]c(N)nc21 [Compound S26] | 60.0 |  |  |
| C[n+]1cn([C@@H]2O[C@H](COP(=O)([O-])O)[C@@H](O)[C@H]2N)c2nc(N)[nH]c(=O)c21 [Compound S27] | 57.8 |  |  |
| C[n+]1cn([C@@H]2O[C@H](COP(=O)([O-])O)[C@H]3OC(C)(C)O[C@H]32)c2nc(N)[nH]c(=O)c21 [Compound S28] | 33.3 |  |  |
| C[n+]1cn([C@@H]2O[C@H](COP(=O)(O)O)[C@@H](OC(=O)NCCC(=O)[O-])[C@H]2O)c2nc(N)[nH]c(=O)c21 [Compound S31] | 20.0 |  |  |
| C[n+]1cn([C@@H]2O[C@H](COP(=O)([O-])O)[C@@H](O)[C@H]2NC(=O)CCCC[C@@H]2SC[C@@H]3NC(=O)N[C@@H]32)c2nc(N)[nH]c(=O)c21 [Compound S32] | 0.0 |  |  |
| Cn1c[n+]([C@@H]2O[C@H](COP(=O)(O)OP(=O)([O-])O)[C@@H](O)[C@H]2O)c2nc(N)[nH]c(=O)c21 [m7GDP, reference compound] | 97.8 |  |  |
| C[n+]1cn([C@@H]2O[C@H](COP(=O)([O-])O)[C@@H](O)[C@H]2O)c2nc(N)[nH]c(=O)c21 [m7GMP, 7-mehtylguanosine monophosphate, reference compound] | 100.0 |  |  |
| Cn1c[n+]([C@@H]2O[C@H](COP(=O)([O-])OP(=O)(O)OP(=O)(O)O)[C@@H](O)[C@H]2O)c2nc(N)[nH]c(=O)c21 [m7GTP, reference compound] | 0.0 |  |  |
| Cn1c[n+]([C@@H]2O[C@H](COP(=O)(O)OP(=O)([O-])OP(=O)(O)OC[C@H]3O[C@@H](n4cnc5c(=O)[nH]c(N)nc54)[C@H](O)[C@@H]3O)[C@@H](O)[C@H]2O)c2nc(N)[nH]c(=O)c21 [m7GpppG, reference compound] | 0.0 |  |  |
| C[n+]1cn([C@@H]2O[C@H](CO)[C@@H](O)[C@H]2O)c2nc(N)[nH]c(=O)c21 [m7Guo, 7-methylguanosine, reference compound] | 0.0 |  |  |
